The values that follow come from PMC10407929.

Holding throughout (test): pull-down
In one experiment the target is KPNA2 (Homo sapiens) (UniProt P52292). The note with it: 150 mM NaCl, 50 mM Tris pH 8.0, 0.25% NP-40, 1 mM DTT; 4 C, 2 h; 100 ug nuclear extract; double strand, one strand shown.
Another experiment concerns the target LIG3 (Homo sapiens) (UniProt P49916). Particulars: 150 mM NaCl, 50 mM Tris pH 8.0, 0.25% NP-40, 1 mM DTT, 4 C, 2 h, 100 ug nuclear extract, double strand, one strand shown.
UniProt P49916, sequence (P49916 whole entry): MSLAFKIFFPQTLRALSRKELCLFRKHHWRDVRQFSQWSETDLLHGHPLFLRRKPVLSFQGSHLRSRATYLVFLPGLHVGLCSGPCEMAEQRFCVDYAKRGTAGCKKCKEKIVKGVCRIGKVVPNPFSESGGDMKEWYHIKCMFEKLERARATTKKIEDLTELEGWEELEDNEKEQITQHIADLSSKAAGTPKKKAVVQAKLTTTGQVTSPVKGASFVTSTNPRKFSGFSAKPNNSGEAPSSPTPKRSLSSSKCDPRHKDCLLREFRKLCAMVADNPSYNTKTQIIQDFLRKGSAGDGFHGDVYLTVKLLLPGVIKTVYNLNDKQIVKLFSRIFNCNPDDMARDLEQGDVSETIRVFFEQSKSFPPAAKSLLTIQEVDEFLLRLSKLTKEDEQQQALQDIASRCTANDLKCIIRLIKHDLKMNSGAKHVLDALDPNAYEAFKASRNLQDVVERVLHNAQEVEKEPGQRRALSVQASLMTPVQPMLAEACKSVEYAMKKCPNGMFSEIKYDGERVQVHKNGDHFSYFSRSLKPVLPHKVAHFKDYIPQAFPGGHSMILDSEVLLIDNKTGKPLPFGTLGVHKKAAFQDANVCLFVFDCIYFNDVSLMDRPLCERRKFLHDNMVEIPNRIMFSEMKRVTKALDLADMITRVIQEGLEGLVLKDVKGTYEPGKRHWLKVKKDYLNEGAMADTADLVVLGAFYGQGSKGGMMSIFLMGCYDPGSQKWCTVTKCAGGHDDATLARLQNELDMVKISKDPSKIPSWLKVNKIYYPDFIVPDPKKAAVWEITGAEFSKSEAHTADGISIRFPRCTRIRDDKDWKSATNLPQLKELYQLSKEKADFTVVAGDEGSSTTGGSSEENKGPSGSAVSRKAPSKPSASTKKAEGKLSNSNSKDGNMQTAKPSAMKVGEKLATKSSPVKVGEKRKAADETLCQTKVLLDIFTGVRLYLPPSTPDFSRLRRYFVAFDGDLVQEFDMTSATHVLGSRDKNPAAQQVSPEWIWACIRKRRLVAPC
Another experiment addresses T1, MLXIP (UniProt Q9HAP2).
T1 sequence: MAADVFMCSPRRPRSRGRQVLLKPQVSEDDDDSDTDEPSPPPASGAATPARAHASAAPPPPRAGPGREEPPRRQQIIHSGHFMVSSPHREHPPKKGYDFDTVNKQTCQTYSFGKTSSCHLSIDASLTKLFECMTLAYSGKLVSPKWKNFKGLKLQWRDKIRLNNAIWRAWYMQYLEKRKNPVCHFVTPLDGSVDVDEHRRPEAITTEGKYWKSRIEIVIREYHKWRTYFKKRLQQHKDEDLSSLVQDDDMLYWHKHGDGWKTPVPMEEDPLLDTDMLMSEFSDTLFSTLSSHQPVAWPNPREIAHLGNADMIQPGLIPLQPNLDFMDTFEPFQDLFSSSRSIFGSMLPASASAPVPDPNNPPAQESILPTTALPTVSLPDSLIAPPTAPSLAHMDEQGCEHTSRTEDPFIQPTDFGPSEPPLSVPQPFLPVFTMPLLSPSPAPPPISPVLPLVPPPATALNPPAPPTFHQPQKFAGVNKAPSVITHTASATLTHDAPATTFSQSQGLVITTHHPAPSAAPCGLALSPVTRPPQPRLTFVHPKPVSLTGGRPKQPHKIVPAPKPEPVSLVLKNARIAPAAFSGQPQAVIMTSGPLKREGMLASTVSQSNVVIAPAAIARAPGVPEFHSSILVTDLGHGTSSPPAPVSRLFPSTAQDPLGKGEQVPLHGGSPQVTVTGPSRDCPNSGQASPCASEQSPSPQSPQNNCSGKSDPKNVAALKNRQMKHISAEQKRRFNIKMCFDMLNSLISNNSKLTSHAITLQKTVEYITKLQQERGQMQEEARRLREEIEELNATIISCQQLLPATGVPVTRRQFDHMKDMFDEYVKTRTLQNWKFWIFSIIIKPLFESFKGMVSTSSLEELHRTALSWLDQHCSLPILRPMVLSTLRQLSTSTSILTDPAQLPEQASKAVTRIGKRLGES
Particulars: 150 mM NaCl, 50 mM Tris pH 8.0, 0.25% NP-40, 1 mM DTT; 4 C, 2 h; 100 ug nuclear extract; double strand, one strand shown.

The target in a further experiment is MSH2 (Homo sapiens) (UniProt P43246). Particulars: 150 mM NaCl, 50 mM Tris pH 8.0, 0.25% NP-40, 1 mM DTT, 4 C, 2 h, 100 ug nuclear extract, double strand, one strand shown.
UniProt P43246, sequence (P43246 whole entry): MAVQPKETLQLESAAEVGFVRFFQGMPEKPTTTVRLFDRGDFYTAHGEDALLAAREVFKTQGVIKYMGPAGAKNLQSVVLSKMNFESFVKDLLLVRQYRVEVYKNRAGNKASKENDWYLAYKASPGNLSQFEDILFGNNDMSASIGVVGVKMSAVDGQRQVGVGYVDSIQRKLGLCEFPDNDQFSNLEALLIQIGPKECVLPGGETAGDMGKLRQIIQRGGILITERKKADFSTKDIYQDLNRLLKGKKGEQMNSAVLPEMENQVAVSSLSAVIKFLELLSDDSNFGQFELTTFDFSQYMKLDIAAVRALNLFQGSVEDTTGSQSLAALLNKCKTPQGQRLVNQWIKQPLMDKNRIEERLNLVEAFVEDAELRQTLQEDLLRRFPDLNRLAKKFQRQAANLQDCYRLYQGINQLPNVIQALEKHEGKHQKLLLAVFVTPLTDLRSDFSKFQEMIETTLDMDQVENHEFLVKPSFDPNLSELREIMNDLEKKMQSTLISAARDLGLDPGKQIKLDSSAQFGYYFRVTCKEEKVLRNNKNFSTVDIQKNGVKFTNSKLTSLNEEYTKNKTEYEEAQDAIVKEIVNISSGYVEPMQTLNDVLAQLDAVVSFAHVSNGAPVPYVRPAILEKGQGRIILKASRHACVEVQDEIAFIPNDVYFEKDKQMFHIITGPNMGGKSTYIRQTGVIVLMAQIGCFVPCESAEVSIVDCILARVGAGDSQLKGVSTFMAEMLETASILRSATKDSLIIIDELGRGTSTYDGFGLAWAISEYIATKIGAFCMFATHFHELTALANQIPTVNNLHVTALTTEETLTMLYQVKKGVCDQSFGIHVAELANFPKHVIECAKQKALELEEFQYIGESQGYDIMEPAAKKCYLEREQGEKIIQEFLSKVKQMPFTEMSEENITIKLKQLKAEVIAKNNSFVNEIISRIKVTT
In another experiment the target is MSH3 (Homo sapiens) (UniProt P20585). The note with it: 150 mM NaCl, 50 mM Tris pH 8.0, 0.25% NP-40, 1 mM DTT, 4 C, 2 h, 100 ug nuclear extract, double strand, one strand shown.
UniProt P20585, sequence (P20585 whole entry): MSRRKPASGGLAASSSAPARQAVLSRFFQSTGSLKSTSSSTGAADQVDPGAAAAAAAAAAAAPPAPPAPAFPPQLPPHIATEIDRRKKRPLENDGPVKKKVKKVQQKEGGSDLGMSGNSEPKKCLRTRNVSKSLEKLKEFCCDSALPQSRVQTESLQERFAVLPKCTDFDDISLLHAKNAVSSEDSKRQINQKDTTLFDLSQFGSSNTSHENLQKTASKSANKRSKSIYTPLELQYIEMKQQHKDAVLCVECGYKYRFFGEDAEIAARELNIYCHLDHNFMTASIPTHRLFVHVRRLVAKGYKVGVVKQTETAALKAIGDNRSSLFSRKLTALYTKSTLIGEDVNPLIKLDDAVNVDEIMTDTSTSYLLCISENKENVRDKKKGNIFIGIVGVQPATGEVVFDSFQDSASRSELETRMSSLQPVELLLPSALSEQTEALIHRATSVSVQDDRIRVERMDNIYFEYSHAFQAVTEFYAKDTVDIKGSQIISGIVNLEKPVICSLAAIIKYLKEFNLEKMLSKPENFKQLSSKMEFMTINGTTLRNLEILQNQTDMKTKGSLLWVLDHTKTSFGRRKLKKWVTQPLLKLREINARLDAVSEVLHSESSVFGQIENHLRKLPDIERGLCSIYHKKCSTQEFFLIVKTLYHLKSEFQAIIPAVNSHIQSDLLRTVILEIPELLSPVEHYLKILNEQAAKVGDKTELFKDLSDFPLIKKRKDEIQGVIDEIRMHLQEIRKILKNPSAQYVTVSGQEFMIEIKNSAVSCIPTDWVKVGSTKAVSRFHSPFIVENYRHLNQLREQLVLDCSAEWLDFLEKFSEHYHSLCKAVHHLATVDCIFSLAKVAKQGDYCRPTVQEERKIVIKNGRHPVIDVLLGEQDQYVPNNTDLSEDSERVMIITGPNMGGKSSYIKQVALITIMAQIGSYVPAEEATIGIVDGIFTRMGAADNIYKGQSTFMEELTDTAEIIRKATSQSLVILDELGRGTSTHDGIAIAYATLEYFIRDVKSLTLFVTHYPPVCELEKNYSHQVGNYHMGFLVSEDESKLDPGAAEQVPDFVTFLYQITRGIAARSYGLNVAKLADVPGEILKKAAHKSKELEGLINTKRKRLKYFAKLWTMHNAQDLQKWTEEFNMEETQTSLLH
The next experiment addresses PARP1 (Homo sapiens) (UniProt P09874). The note with it: 150 mM NaCl, 50 mM Tris pH 8.0, 0.25% NP-40, 1 mM DTT, 4 C, 2 h, 100 ug nuclear extract, double strand, one strand shown.
UniProt P09874, sequence (P09874 whole entry): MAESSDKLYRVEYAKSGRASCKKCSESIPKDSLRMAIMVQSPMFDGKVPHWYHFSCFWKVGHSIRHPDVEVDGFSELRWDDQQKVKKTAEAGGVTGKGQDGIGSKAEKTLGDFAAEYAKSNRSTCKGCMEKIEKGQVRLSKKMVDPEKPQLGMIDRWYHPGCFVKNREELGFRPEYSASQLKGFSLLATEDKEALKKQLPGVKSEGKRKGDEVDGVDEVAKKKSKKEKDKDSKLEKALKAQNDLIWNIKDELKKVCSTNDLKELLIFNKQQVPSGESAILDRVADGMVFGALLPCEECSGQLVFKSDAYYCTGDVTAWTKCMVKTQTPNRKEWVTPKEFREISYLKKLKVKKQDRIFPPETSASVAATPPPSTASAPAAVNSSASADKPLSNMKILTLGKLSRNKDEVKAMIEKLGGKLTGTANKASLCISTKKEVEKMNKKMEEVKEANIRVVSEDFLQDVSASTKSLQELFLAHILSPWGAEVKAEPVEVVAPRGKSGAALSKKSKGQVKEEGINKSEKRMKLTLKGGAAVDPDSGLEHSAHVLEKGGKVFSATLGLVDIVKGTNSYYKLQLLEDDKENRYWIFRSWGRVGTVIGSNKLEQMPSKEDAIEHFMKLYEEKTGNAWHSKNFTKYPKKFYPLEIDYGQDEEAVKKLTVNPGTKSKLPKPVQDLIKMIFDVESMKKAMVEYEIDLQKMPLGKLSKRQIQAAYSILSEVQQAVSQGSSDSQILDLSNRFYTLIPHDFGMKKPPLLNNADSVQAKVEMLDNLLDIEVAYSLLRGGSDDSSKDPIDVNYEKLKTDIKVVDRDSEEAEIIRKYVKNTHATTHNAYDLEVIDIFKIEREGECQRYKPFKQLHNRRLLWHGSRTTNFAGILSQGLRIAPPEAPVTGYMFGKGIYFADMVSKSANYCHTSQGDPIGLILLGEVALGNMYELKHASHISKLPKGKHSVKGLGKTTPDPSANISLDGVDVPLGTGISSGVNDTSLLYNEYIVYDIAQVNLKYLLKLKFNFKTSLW
The next experiment addresses T2, PCGF1 (Homo sapiens) (UniProt Q9BSM1).
T2 sequence: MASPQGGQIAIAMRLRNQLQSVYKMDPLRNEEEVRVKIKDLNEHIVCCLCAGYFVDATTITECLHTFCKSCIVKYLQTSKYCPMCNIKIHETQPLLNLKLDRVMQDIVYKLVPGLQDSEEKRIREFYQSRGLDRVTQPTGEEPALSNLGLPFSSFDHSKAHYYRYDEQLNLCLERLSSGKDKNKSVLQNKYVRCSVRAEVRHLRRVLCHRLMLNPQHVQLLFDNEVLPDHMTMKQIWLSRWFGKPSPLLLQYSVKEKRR
Particulars: 150 mM NaCl, 50 mM Tris pH 8.0, 0.25% NP-40, 1 mM DTT; 4 C, 2 h; 100 ug nuclear extract; double strand, one strand shown.

Another experiment concerns the target KMT2A (Homo sapiens) (UniProt Q03164). The note with it: 150 mM NaCl, 50 mM Tris pH 8.0, 0.25% NP-40, 1 mM DTT; 4 C, 2 h; 100 ug nuclear extract; double strand, one strand shown.
In a further experiment the target is L3MBTL3 (Homo sapiens) (UniProt Q96JM7). The note with it: 150 mM NaCl, 50 mM Tris pH 8.0, 0.25% NP-40, 1 mM DTT; 4 C, 2 h; 100 ug nuclear extract; double strand, one strand shown.
UniProt Q96JM7, sequence (Q96JM7 whole entry): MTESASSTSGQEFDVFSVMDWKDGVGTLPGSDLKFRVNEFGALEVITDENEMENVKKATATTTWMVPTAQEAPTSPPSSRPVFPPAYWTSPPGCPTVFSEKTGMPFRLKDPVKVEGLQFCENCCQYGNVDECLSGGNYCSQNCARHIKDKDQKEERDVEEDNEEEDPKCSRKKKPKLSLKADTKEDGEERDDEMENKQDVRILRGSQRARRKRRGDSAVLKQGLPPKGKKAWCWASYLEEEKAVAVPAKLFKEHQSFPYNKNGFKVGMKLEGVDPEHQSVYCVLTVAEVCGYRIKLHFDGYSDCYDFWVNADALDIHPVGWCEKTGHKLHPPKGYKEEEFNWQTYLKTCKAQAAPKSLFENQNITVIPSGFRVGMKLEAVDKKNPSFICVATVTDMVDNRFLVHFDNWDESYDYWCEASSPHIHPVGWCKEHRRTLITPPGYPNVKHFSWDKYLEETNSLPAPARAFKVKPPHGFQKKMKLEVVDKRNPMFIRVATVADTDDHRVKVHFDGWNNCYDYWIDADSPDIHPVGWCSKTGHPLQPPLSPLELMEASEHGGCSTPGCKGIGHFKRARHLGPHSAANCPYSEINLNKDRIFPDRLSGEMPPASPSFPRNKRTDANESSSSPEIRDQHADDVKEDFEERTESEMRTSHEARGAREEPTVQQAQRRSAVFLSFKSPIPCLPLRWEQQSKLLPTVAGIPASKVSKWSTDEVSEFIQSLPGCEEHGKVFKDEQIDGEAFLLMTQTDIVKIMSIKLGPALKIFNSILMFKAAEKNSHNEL
In the next experiment the target is T3, MYBBP1A (Homo sapiens) (UniProt Q9BQG0).
T3 sequence: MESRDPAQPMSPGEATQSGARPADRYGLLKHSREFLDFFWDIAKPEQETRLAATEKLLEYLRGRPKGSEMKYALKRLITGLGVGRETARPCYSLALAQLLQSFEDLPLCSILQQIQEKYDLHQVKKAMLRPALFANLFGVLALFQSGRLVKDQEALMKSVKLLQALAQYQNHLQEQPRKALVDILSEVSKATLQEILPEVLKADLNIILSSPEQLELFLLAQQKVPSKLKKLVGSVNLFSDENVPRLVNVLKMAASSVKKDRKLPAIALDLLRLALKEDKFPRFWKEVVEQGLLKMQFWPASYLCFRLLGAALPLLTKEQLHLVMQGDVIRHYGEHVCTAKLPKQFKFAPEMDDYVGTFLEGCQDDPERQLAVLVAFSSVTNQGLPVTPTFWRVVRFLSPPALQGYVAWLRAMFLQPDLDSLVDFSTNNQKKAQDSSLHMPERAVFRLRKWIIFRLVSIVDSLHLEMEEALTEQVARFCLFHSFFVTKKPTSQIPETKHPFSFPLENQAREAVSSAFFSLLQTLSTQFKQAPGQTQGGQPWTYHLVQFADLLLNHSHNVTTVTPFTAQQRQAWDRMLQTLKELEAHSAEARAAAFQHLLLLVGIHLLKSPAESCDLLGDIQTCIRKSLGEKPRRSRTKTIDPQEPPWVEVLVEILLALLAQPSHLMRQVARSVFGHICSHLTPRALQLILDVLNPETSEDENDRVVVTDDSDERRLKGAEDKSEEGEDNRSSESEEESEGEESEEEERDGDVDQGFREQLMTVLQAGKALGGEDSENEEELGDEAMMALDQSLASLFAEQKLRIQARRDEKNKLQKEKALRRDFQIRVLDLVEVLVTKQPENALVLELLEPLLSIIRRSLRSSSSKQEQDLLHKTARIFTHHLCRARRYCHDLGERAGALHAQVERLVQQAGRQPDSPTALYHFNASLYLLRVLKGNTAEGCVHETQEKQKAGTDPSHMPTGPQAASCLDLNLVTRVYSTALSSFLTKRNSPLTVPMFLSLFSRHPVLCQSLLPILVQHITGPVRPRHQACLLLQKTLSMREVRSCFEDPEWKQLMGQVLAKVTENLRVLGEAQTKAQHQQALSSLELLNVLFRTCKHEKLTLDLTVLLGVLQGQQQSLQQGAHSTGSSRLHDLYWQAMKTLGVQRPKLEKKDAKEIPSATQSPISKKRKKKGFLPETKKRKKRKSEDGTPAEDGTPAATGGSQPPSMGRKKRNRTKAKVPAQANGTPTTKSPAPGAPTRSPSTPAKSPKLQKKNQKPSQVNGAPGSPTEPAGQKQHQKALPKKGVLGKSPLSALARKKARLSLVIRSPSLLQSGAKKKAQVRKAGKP
Particulars: 150 mM NaCl, 50 mM Tris pH 8.0, 0.25% NP-40, 1 mM DTT; 4 C, 2 h; 100 ug nuclear extract; double strand, one strand shown.

[1] abbreviates: 5mC at 15,17 (strand 1), 5mC at 14,16 (strand 2).

Where “and” joins values, the source holds several entries; their conditions need not be identical. Identical values can stand only once. This is one part of the list. The protein was read in a cell extract, so binding may be indirect.

As for “GCCGCCGCCCTCCCACGCGCTGCCGGGCC [BEND3 bait]”, the half-maximal binding amounted to 74.7 nM with KPNA2 (Homo sapiens); 147 nM in the experiment with LIG3 (Homo sapiens); 244 nM with MLXIP; 122 nM in the experiment with MSH2 (Homo sapiens); 139 nM with MSH3 (Homo sapiens); 117 nM with PARP1 (Homo sapiens). The sequence further had a half-maximal binding in the experiment with PCGF1 (Homo sapiens) of 438 nM.

For the sequence “GCCGCCGCCCTTCTCGCGAGACTGCCGGGCC [CGCG bait]”, the half-maximal binding in the experiment with KMT2A (Homo sapiens) was 221 nM; with L3MBTL3 (Homo sapiens) it was 356 nM; in the experiment with LIG3 (Homo sapiens) it was 374 nM and 122 nM; in the experiment with MSH2 (Homo sapiens), 161 nM; in the experiment with MSH3 (Homo sapiens), 167 nM and 299 nM; with MYBBP1A (Homo sapiens), 388 nM. Also, the half-maximal binding with PARP1 (Homo sapiens) was 401 nM and 43.8 nM; in the experiment with PCGF1 (Homo sapiens) it was 63.7 nM.

For “GAGAGAAAATAAAACTGGCT [SP/KLF negative control bait]”, the half-maximal binding with LIG3 (Homo sapiens) is 500 nM; with PARP1 (Homo sapiens), 126 nM.

For the sequence GAGAGCCCCGCCCCCTGGCT [SP/KLF bait], the half-maximal binding with LIG3 (Homo sapiens) stood at 524 nM; in the experiment with PARP1 (Homo sapiens), 137 nM.

In the case of “GCCGCCGCCCTTCTCGCGAGACTGCCGGGCC [methylated CGCG bait]”, the half-maximal binding with LIG3 (Homo sapiens) (setting [1]) stood at 120 nM; with MSH2 (Homo sapiens) (setting [1]), 123 nM; with MSH3 (Homo sapiens) (setting [1]), 141 nM; in the experiment with PARP1 (Homo sapiens) (setting [1]) it was 43 nM.
